# Test results as given in the supplement of paper PMC8728848.
# Some of the results follow.
# B1: rAAL-H59Q (Agrocybe aegerita), Q6WY08 (protein)
# chain: MQGVNIYNISAGTSVDLAAPVTTGDIVTFFSSALNLNAGAGNPNNTTLNLFAENGAYLLQIAFRLQENVIIFNSRQPDGPWLVEQRVSDVANQFAGIDGKAMVTVFDHGDKYQVVINEKTVIQYTKQISGLTLSLSYNATEETSIFSTVVEAVTYTGLALEHHHHHH
# Key:
# Assay in all cases: glycan array binding signal (z-score within array); higher = stronger binding
# Conditions in all cases: glycan notation: IUPAC condensed, linker removed; mutation: H59Q
# [1] = molecular target: Neu5Ac(a2-3)Gal6S(b1-4)[Fuc(a1-3)]GlcNAc
# Method in brief: (§1)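 Negative Z-scores can be read as non-binding. The Z-score is calculated within each array and then averaged across arrays of one protein sequence at different concentrations or buffers and across linkers. Arrays, 3228 in all, were curated from the Consortium for Functional Glycomics database and kept only where the protein sequence was available.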
# Neu5Ac(a2-3)GalNAc = molecular target: Neu5Ac(a2-3)GalNAc
# Method in brief: as §1
# [2] = molecular target: Neu5Ac(a2-3)GalNAc(b1-4)GlcNAc
# Method in brief: as §1
# [3] = molecular target: Neu5Ac(a2-3)[GalNAc(b1-4)]Gal(b1-4)Glc
# Method in brief: as §1
# [4] = molecular target: Neu5Ac(a2-3)[GalNAc(b1-4)]Gal(b1-4)GlcNAc
# Method in brief: as §1
# [5] = molecular target: Neu5Ac(a2-3)[GalNAc(b1-4)]Gal(b1-4)GlcNAc(b1-3)GalNAc
# Method in brief: as §1
# [6] = molecular target: Neu5Ac(a2-3)[Neu5Ac(a2-6)]GalNAc
# Method in brief: as §1
# Neu5Ac(a2-6)Gal = molecular target: Neu5Ac(a2-6)Gal
# Method in brief: as §1
# [7] = molecular target: Neu5Ac(a2-6)Gal(b1-3)GlcNAc(b1-3)[Gal(b1-4)GlcNAc(b1-6)]Gal(b1-4)Glc
# Method in brief: as §1
# Neu5Ac(a2-6)Gal(b1-4)Glc = molecular target: Neu5Ac(a2-6)Gal(b1-4)Glc
# Method in brief: as §1
# [8] = molecular target: Neu5Ac(a2-6)Gal(b1-4)GlcNAc
# Method in brief: as §1
# [9] = molecular target: Neu5Ac(a2-6)Gal(b1-4)GlcNAc(b1-2)Man
# Method in brief: as §1
# [10] = molecular target: Neu5Ac(a2-6)Gal(b1-4)GlcNAc(b1-2)Man(a1-3)Man(b1-4)GlcNAc(b1-4)GlcNAc
# Method in brief: as §1
# [11] = molecular target: Neu5Ac(a2-6)Gal(b1-4)GlcNAc(b1-2)Man(a1-3)[Gal(b1-4)GlcNAc(b1-2)Man(a1-6)]Man(b1-4)GlcNAc(b1-4)GlcNAc
# Method in brief: as §1
# [12] = molecular target: Neu5Ac(a2-6)Gal(b1-4)GlcNAc(b1-2)Man(a1-3)[GlcNAc(b1-2)Man(a1-6)]Man(b1-4)GlcNAc(b1-4)GlcNAc
# Method in brief: as §1
# [13] = molecular target: Neu5Ac(a2-6)Gal(b1-4)GlcNAc(b1-2)Man(a1-3)[GlcNAc(b1-4)][Neu5Ac(a2-6)Gal(b1-4)GlcNAc(b1-2)Man(a1-6)]Man(b1-4)GlcNAc(b1-4)GlcNAc
# Method in brief: as §1
# [14] = molecular target: Neu5Ac(a2-6)Gal(b1-4)GlcNAc(b1-2)Man(a1-3)[Man(a1-6)]Man(b1-4)GlcNAc(b1-4)GlcNAc
# Method in brief: as §1
# [15] = molecular target: Neu5Ac(a2-6)Gal(b1-4)GlcNAc(b1-2)Man(a1-3)[Neu5Ac(a2-3)Gal(b1-4)GlcNAc(b1-2)Man(a1-6)]Man(b1-4)GlcNAc(b1-4)GlcNAc
# Method in brief: as §1
# [16] = molecular target: Neu5Ac(a2-6)Gal(b1-4)GlcNAc(b1-2)Man(a1-3)[Neu5Ac(a2-6)Gal(b1-4)GlcNAc(b1-2)Man(a1-6)]Man(b1-4)GlcNAc(b1-4)GlcNAc
# Method in brief: as §1
# [17] = molecular target: Neu5Ac(a2-6)Gal(b1-4)GlcNAc(b1-2)Man(a1-3)[Neu5Ac(a2-6)Gal(b1-4)GlcNAc(b1-2)Man(a1-6)]Man(b1-4)GlcNAc(b1-4)[Fuc(a1-6)]GlcNAc
# Method in brief: as §1
# [18] = molecular target: Neu5Ac(a2-6)Gal(b1-4)GlcNAc(b1-2)Man(a1-6)Man(b1-4)GlcNAc(b1-4)GlcNAc
# Method in brief: as §1
# [19] = molecular target: Neu5Ac(a2-6)Gal(b1-4)GlcNAc(b1-2)Man(a1-6)[Gal(b1-4)GlcNAc(b1-2)Man(a1-3)]Man(b1-4)GlcNAc(b1-4)GlcNAc
# Method in brief: as §1
# [20] = molecular target: Neu5Ac(a2-6)Gal(b1-4)GlcNAc(b1-2)Man(a1-6)[GlcNAc(b1-2)Man(a1-3)]Man(b1-4)GlcNAc(b1-4)GlcNAc
# Method in brief: as §1
# [21] = molecular target: Neu5Ac(a2-6)Gal(b1-4)GlcNAc(b1-2)Man(a1-6)[Man(a1-3)]Man(b1-4)GlcNAc(b1-4)GlcNAc
# Method in brief: as §1
# [22] = molecular target: Neu5Ac(a2-6)Gal(b1-4)GlcNAc(b1-2)[Neu5Ac(a2-6)Gal(b1-4)GlcNAc(b1-4)]Man(a1-3)[GlcNAc(b1-4)][Neu5Ac(a2-6)Gal(b1-4)GlcNAc(b1-2)[Neu5Ac(a2-6)Gal(b1-4)GlcNAc(b1-6)]Man(a1-6)]Man(b1-4)GlcNAc(b1-4)GlcNAc
# Method in brief: as §1
# [23] = molecular target: Neu5Ac(a2-6)Gal(b1-4)GlcNAc(b1-2)[Neu5Ac(a2-6)Gal(b1-4)GlcNAc(b1-4)]Man(a1-3)[GlcNAc(b1-4)][Neu5Ac(a2-6)Gal(b1-4)GlcNAc(b1-4)Man(a1-6)]Man(b1-4)GlcNAc(b1-4)GlcNAc
# Method in brief: as §1
# [24] = molecular target: Neu5Ac(a2-6)Gal(b1-4)GlcNAc(b1-2)[Neu5Ac(a2-6)Gal(b1-4)GlcNAc(b1-6)]Man(a1-6)[Neu5Ac(a2-6)Gal(b1-4)GlcNAc(b1-2)Man(a1-3)][GlcNAc(b1-4)]Man(b1-4)GlcNAc(b1-4)GlcNAc
# Method in brief: as §1
# [25] = molecular target: Neu5Ac(a2-6)Gal(b1-4)GlcNAc(b1-3)Gal(b1-3)GlcNAc
# Method in brief: as §1
# [26] = molecular target: Neu5Ac(a2-6)Gal(b1-4)GlcNAc(b1-3)Gal(b1-4)GlcNAc
# Method in brief: as §1
# [27] = molecular target: Neu5Ac(a2-6)Gal(b1-4)GlcNAc(b1-3)Gal(b1-4)GlcNAc(b1-2)Man(a1-3)[Neu5Ac(a2-6)Gal(b1-4)GlcNAc(b1-3)Gal(b1-4)GlcNAc(b1-2)Man(a1-6)]GalNAc
# Method in brief: as §1
# [28] = molecular target: Neu5Ac(a2-6)Gal(b1-4)GlcNAc(b1-3)Gal(b1-4)GlcNAc(b1-3)Gal(b1-4)GlcNAc
# Method in brief: as §1
# [29] = molecular target: Neu5Ac(a2-6)Gal(b1-4)GlcNAc(b1-3)Gal(b1-4)GlcNAc(b1-3)Gal(b1-4)GlcNAc(b1-2)Man(a1-3)[Neu5Ac(a2-6)Gal(b1-4)GlcNAc(b1-3)Gal(b1-4)GlcNAc(b1-3)Gal(b1-4)GlcNAc(b1-2)Man(a1-6)]GalNAc
# Method in brief: as §1
# [30] = molecular target: Neu5Ac(a2-6)Gal(b1-4)GlcNAc(b1-3)Gal(b1-4)GlcNAc(b1-3)GalNAc
# Method in brief: as §1
# [31] = molecular target: Neu5Ac(a2-6)Gal(b1-4)GlcNAc(b1-3)Gal(b1-4)GlcNAc(b1-3)[Neu5Ac(a2-6)Gal(b1-4)GlcNAc(b1-3)Gal(b1-4)GlcNAc(b1-6)]GalNAc
# Method in brief: as §1
# [32] = molecular target: Neu5Ac(a2-6)Gal(b1-4)GlcNAc(b1-3)Gal(b1-4)GlcNAc(b1-6)[Gal(b1-3)]GalNAc
# Method in brief: as §1
# [33] = molecular target: Neu5Ac(a2-6)Gal(b1-4)GlcNAc(b1-3)Gal(b1-4)[Fuc(a1-3)]GlcNAc(b1-3)Gal(b1-4)[Fuc(a1-3)]GlcNAc
# Method in brief: as §1
# [34] = molecular target: Neu5Ac(a2-6)Gal(b1-4)GlcNAc(b1-3)GalNAc
# Method in brief: as §1
# [35] = molecular target: Neu5Ac(a2-6)Gal(b1-4)GlcNAc(b1-3)[Neu5Ac(a2-6)Gal(b1-4)GlcNAc(b1-6)]GalNAc
# Method in brief: as §1
# [36] = molecular target: Neu5Ac(a2-6)Gal(b1-4)GlcNAc(b1-6)GalNAc
# Method in brief: as §1
# [37] = molecular target: Neu5Ac(a2-6)Gal(b1-4)GlcNAc(b1-6)[Gal(b1-3)GlcNAc(b1-3)]Gal(b1-4)Glc
# Method in brief: as §1
# [38] = molecular target: Neu5Ac(a2-6)Gal(b1-4)GlcNAc(b1-6)[Gal(b1-3)]GalNAc
# Method in brief: as §1
# [39] = molecular target: Neu5Ac(a2-6)Gal(b1-4)GlcNAc6S
# Method in brief: as §1
# Neu5Ac(a2-6)GalNAc = molecular target: Neu5Ac(a2-6)GalNAc
# Method in brief: as §1
# [40] = molecular target: Neu5Ac(a2-6)GalNAc(b1-4)GlcNAc
# Method in brief: as §1
# [41] = molecular target: Neu5Ac(a2-6)GalNAc(b1-4)GlcNAc6S
# Method in brief: as §1
binder,measurement,setting,value
B1,glycan array binding signal (z-score),[1],-0.117
same,glycan array binding signal (z-score),Neu5Ac(a2-3)GalNAc,-0.054
same,glycan array binding signal (z-score),[2],-0.077
same,glycan array binding signal (z-score),[3],-0.088
same,glycan array binding signal (z-score),[4],-0.1
same,glycan array binding signal (z-score),[5],-0.084
same,glycan array binding signal (z-score),[6],-0.128
same,glycan array binding signal (z-score),Neu5Ac(a2-6)Gal,-0.092
same,glycan array binding signal (z-score),[7],-0.134
same,glycan array binding signal (z-score),Neu5Ac(a2-6)Gal(b1-4)Glc,-0.035
same,glycan array binding signal (z-score),[8],-0.081
same,glycan array binding signal (z-score),[9],-0.037
same,glycan array binding signal (z-score),[10],-0.073
same,glycan array binding signal (z-score),[11],-0.067
same,glycan array binding signal (z-score),[12],-0.09
same,glycan array binding signal (z-score),[13],-0.099
same,glycan array binding signal (z-score),[14],0.009
same,glycan array binding signal (z-score),[15],-0.068
same,glycan array binding signal (z-score),[16],-0.091
same,glycan array binding signal (z-score),[17],-0.01
same,glycan array binding signal (z-score),[18],-0.059
same,glycan array binding signal (z-score),[19],-0.095
same,glycan array binding signal (z-score),[20],-0.115
same,glycan array binding signal (z-score),[21],-0.101
same,glycan array binding signal (z-score),[22],-0.077
same,glycan array binding signal (z-score),[23],-0.165
same,glycan array binding signal (z-score),[24],-0.128
same,glycan array binding signal (z-score),[25],-0.124
same,glycan array binding signal (z-score),[26],-0.142
same,glycan array binding signal (z-score),[27],-0.079
same,glycan array binding signal (z-score),[28],-0.126
same,glycan array binding signal (z-score),[29],-0.009
same,glycan array binding signal (z-score),[30],-0.144
same,glycan array binding signal (z-score),[31],-0.036
same,glycan array binding signal (z-score),[32],-0.087
same,glycan array binding signal (z-score),[33],-0.098
same,glycan array binding signal (z-score),[34],-0.049
same,glycan array binding signal (z-score),[35],-0.033
same,glycan array binding signal (z-score),[36],-0.076
same,glycan array binding signal (z-score),[37],-0.112
same,glycan array binding signal (z-score),[38],-0.099
same,glycan array binding signal (z-score),[39],-0.104
same,glycan array binding signal (z-score),Neu5Ac(a2-6)GalNAc,-0.085
same,glycan array binding signal (z-score),[40],-0.112
same,glycan array binding signal (z-score),[41],-0.041
